Measured values as given in PMC6919601, “Identification of Plasmodium dipeptidyl aminopeptidase allosteric inhibitors by high throughput screening” (PLoS ONE, 2019).
“And” between values parts separate entries of the source, which are not always exact repeats. Equal values may be shown once. In all, about 110,000 compounds went through this assay and about 230 (0.21%) showed an effect of 50% or more. This is one part of the list.

What follows are molecules tested against DPAP1 (Plasmodium falciparum, UniProt Q8IIJ9) (assay: primary screen, percent inhibition; read by cleavage of a fluorogenic dipeptide substrate; higher = more effect of the substance).
Sequence of DPAP1 (Q8IIJ9 whole entry, looked up): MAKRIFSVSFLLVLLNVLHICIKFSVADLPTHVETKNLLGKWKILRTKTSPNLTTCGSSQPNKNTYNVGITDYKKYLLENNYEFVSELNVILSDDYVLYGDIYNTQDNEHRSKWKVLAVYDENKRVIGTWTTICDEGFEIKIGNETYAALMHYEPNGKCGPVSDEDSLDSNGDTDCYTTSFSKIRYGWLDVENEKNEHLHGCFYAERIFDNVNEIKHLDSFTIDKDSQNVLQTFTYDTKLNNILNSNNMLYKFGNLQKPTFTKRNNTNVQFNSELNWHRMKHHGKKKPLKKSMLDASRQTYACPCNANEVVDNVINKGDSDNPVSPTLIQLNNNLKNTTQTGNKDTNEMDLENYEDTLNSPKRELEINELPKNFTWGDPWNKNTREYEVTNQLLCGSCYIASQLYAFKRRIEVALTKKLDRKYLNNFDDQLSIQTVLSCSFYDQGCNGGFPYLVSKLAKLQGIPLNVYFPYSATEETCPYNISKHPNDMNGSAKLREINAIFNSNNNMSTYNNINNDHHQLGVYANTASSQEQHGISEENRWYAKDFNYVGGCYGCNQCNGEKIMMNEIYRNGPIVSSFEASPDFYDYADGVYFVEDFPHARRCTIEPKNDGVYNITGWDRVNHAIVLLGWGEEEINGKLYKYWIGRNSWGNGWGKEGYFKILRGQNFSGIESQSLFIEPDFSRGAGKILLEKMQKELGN
Set-up: species or system P. falciparum D10 trophozoite lysates; single well
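Note: 30 min substrate incubation versus DMSO and 10 µM JCP410 controls.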

| SMILES | % Inhibition @ 10 uM |
| --- | --- |
| Cc1noc2ncnc(NCc3ccc4c(c3)OCO4)c12 | 1.23% |
| CC(C)N1CCN(C(=O)c2ccccc2)CC1 | -7.18% |
| Cc1nc2ccccc2c2c1C(=O)N(CCC1=CCCCC1)C2=O | -2.49% |
| CCOc1c(NC(=O)[C@H](CC(C)C)NC(=O)[C@H](CC(C)C)NC(=O)[C@H](CC(C)C)NC(=O)OCc2ccccc2)c(=O)c1=O | -8.36% |
| Cc1ccn2c(=O)c(C(=O)Nc3cccnc3)cnc2c1 | 0.0579% |
| CCCC(=O)Nc1ccc2c(c1)ncn2C(C)(C)C | -4.97% |
| CN(C)c1ccc(C(=S)N2CCOCC2)cc1 | -3% |
| CCCn1c2ccccc2c2cnn(CC(=O)N3CC(C)CC(C)C3)c(=O)c21 (stereo not shown) | 1.66% |
| COc1ccccc1-c1n[nH]c(SCc2ccc(C(=O)O)cc2)n1 | -1.98% |
| CCOC(=O)/C(C#N)=C/c1ccc(OC)cc1OC | 9.68% |
| CCc1nn(CC(=O)N2CCN(CC)CC2)c(=O)c2cc3sccc3n12 | 3.2% |
| CC(C)C[C@H](NC(=O)c1ccccc1-c1ccc(C(F)(F)F)cc1)C(=O)NCC#N | 17% |
| CC1(C)CC(=O)C(CCC#N)(CCC#N)C(=O)C1 | -4.01% |
| COCCNC(=O)C1CCN(c2nn3c(=O)cc(C)nc3s2)CC1 | -3.79% |
| Cc1nc(O)c(C#N)c(C)c1CSCc1ccco1 | 0.343% |
| CCNC(=O)c1c(O)c2ccccc2n(CC)c1=O | 1% |
| CCC(C)NC(=O)Cn1nc(C)n2c(cc3cc(OC)ccc32)c1=O (stereo not shown) | -5.32% |
| CCC1=NN(C(=O)c2ccc(OC)cc2)C(O)(c2ccccc2)C1 (stereo not shown) | 3.53% |
| CS(=O)(=O)N(CC(=O)N1CCc2ccccc2C1)c1ccc(Cl)cc1 | -8.78% |
| CN(C)CCOC(=O)C12CC3(C)CC(C)(CC(C)(C3)C1)C2 | -4.23% |
| Cc1cccc(OCC(=O)Nc2cccc(C#N)c2)c1 | -2.3% |
| COc1ccc(CCNC(=O)CSc2ncnc3sc4c(c23)CCCC4)cc1OC | 5.59% |
| COc1ccc(S(=O)(=O)Nc2cc(C)ccn2)cc1 | 4.69% |
| CC(=O)C1=C(O)C(=O)N(c2nc3ccccc3s2)C1c1ccccc1F (stereo not shown) | -3.75% |
| CCc1ccc(CNCc2ccc3c(c2)OCO3)cc1 | -1.1% |

| SMILES | % Inhibition @ 10 uM |
| --- | --- |
| Cc1nn(S(=O)(=O)c2ccc(Cl)cc2)c(C)c1Sc1ccccc1 | 2.55% |
| Cc1ccc(Nc2nc(Cl)nc(Nc3ccc(C(C)C)cc3)n2)cc1 | 3.53% |
| Cn1ccc(C(=O)N2CCCc3ccccc32)n1 | -0.622% |
| CN1/C(=C\C(=O)c2cccnc2)Sc2ccccc21 | -4.91% |
| Cc1ccc(-c2nc(CS(=O)(=O)CC(=O)NCCCN(Cc3ccccc3)C(C)C)c(C)o2)cc1 | -0.354% |
| CC(C)CCn1c(-c2ccco2)nc2ccccc21 | 2.73% |
| CCOC(=O)N1CCN(C(=O)CN(c2cccc(OC)c2)S(=O)(=O)c2ccccc2)CC1 | 4.36% |
| CC(=O)c1ccc(N2CCN(Cc3c(C)n(C)n(-c4ccccc4)c3=O)CC2)cc1 | -1.5% |
| O=C1NC(=O)C(=Cc2ccc(-c3cccc(Cl)c3)o2)C(=O)N1 | 6.17% |
| COc1cc2c(cc1OC)C1(CCCC1)CN(C(=O)c1cc(Br)ccc1OC)C2 | -3.53% |
| CCCCN(C)c1ncnc2c1sc1nc(N3CCOCC3)c3c(c12)CCCC3 | 3.47% |
| COc1ccc(NC(=O)C2CC2)cc1OC | -2.48% |
| CCc1c(C)nc2sc3c(=O)[nH]c(=O)[nH]c3c2c1C | -1.6% |
| CCc1nnc(NC(=O)c2ccc(CN3C(=O)C(C)=C(c4ccc(C)c(C)c4)S3(=O)=O)cc2)s1 | 2.31% |
| CCn1c(/C=C/c2ccc(OC)cc2)nc2ccccc2c1=O | -5.23% |
| Cc1ccc(NC(=O)c2cc3ccccc3o2)cc1Cl | 0.147% |
| O=C(O)c1c[nH]c(=O)[nH]c1=O | 0.221% |
| O=S(=O)(c1ccc2ccccc2c1)N1CCN(c2ccccc2)CC1 | 0.345% |
| Cc1ccc(-c2nn3c(C)nnc3c3ccccc23)cc1S(=O)(=O)NCCN1CCOCC1 | 7.25% |
| CCn1c(=O)sc2cc(Br)ccc21 | -0.446% |
| Cc1ccc(-n2nc(C)c3c(C)c(CCC(=O)N4CCOCC4)c(C)nc32)cc1C | 2.57% |
| COc1cccc(S(=O)(=O)NCc2ccc(C(=O)Nc3ccc(Cl)c(Cl)c3)cc2)c1 | 3.58% |
| COc1cc2c(cc1OC)C(C)N(c1ncnc3c1cnn3-c1cccc(C)c1)CC2 (stereo not shown) | 3.04% |
| CC(Oc1ccc(/C=C2/C(=N)N3C(=NC2=O)SN=C3S(C)(=O)=O)cc1)c1ccccc1 (stereo not shown) | -5.27% |
| O=C(CCN1C(=O)c2ccccc2C1=O)NCc1cccnc1 | -5.28% |

| SMILES | % Inhibition @ 10 uM |
| --- | --- |
| O=C1N=C(N2CCOCC2)S/C1=C\c1ccc(OCc2ccccc2)cc1 | 0.147% |
| Cc1ccc(C(=O)NC2(C(F)(F)F)C(=O)Nc3c2c(=O)[nH]c(=O)n3-c2ccc(Cl)cc2)cc1 (stereo not shown) | -3.39% |
| CCN(CC)CCCC(C)Nc1ccnc2cc3ccccc3cc12 (stereo not shown) | -3.48% |
| COc1cc(C2=N/C(=C\c3coc4c(Cl)cc(Cl)cc4c3=O)C(=O)O2)cc(OC)c1OC | -1.15% |
| COc1cc(OC)cc(C(=O)Nc2ccc(C(C)C)cc2)c1 | -14.1% |
| O=C(NCc1ccc2c(c1)OCO2)C1CCN(S(=O)(=O)c2ccc3nc(O)ccc3c2)CC1 | -6.87% |
| CCOc1ccc(C2(C)NC(=O)N(CCN(C)C)C2=O)cc1 (stereo not shown) | -2.15% and -2.63% |
| CCOC(=O)CNC1CC(C)(C)NC(C)(C)C1 | 2.22% |
| COc1ccc(C2C(C#N)=C(N)Oc3[nH]nc(C(C)C)c32)cc1OC (stereo not shown) | 3.65% |
| CC(C)(C)C(=O)N1CCC[C@H]1C(O)(c1ccccc1)c1ccccc1 | -5.13% |
| CC(C)Cn1c(=O)c2ccccc2n2c(-c3cc(Cl)ccc3O)nnc12 | -0.206% |
| O=C(NCc1ccc(F)cc1)C1CCC(CNc2c(N3CCOCC3)c(=O)c2=O)CC1 (stereo not shown) | -0.447% |
| O=C(/C=C/c1ccccc1)N1CCOCC1 | -3.13% |
| CCN(CC)c1cc(Cl)c2nonc2c1[N+](=O)[O-] | 5.66% |
| CN(C)c1ccc(/C=C2\C(=O)N(c3ccccc3F)N=C2c2ccccc2)cc1 | 3.98% |
| COc1ccccc1C(=O)N/C(=C\c1ccc2c(c1)OCO2)C(=O)N1CCCCC1 | 3.95% |
| O=C(c1ccccc1)c1ccc(C(=O)N2CCN(c3ccccc3)CC2)cc1 | 3.47% |
| Cc1cc(-c2ccc(C)c(S(=O)(=O)Nc3cc(C)on3)c2)on1 | 0.879% |
| O=C(O)/C=C/C(=O)NCCN1CCOCC1 | 1.42% |
| COc1cc(C(=O)Nc2ccc(S(=O)(=O)Nc3cc(C)on3)cc2)cc(OC)c1OC | 0.408% |
| Cc1cc(Br)ccc1C(=O)N[C@@H](CC(C)C)C(=O)NCC#N | -1.41% |
| O=C(Nc1ccc2c(c1)OCO2)c1ccc(Cl)cc1Cl | -5.32% |
| Cc1cccn2c(=O)c(/C=C(\C#N)C(=O)NC3CCCC3)c(Oc3ccc(Br)cc3)nc12 | 0.315% |
| COc1ccccc1/C=C(\C#N)C(N)=O | -3.03% |
| CCN1CCN(Cc2ccc(F)cc2F)CC1 | 0.847% |

| SMILES | % Inhibition @ 10 uM |
| --- | --- |
| CC(C)CCNC(=O)c1cc(S(=O)(=O)N2CCOCC2)cn1C | -5.01% |
| Cc1ccc(-n2nc3c(c2NC(=O)CC(C)C)CS(=O)(=O)C3)c(C)c1 | 15.7% |
| CC1CCN(c2ccc3nnc(CCC(=O)N4CCOCC4)n3n2)CC1 | -5.85% |
| CCOc1ccc(C(=O)N2N=C(C)CC2(O)C(F)F)cc1 (stereo not shown) | -3.45% |
| COc1ccccc1CCNCc1ccccc1OC | -2.89% and -3.37% |
| CS(=O)(=O)N(CC(=O)N1CCOCC1)c1ccc(C23C[C@H]4C[C@@H](C2)C[C@@H](C3)C4)cc1 | -0.872% |
| CC(C)(C)NS(=O)(=O)c1cc(Cl)ccc1OCC(=O)N1CCOCC1 | 1.84% |
| CN1CCN(C(=O)c2ccccc2C(=O)O)CC1 | 0.583% |
| COc1ccc(OC)c(S(=O)(=O)CC(=O)c2cc3ccccc3oc2=O)c1 | 9.23% |
| CC(=O)Nc1ccc(S(=O)(=O)NCc2ccccc2)cc1 | 3.29% |
| O=S(=O)(NCC1CCCO1)c1ccc(-c2ccc(Cl)cc2)cc1 (stereo not shown) | -3.04% |
| CC(O)C#CCN(Cc1ccccc1)C(C)C (stereo not shown) | 1.43% |
| O=C1c2ccccc2C(=O)N1CCSC(=S)N1CCCCCC1 | -3.72% |
| CCc1cc2c(=O)n(CC(=O)NCc3ccccc3)cnc2s1 | -0.478% |
| CCOC(=O)C1CCN(c2ccc(-c3ccccc3)nn2)CC1 | 3.76% |
| Clc1ccc(-c2csc3ncnc(NCc4ccco4)c23)cc1 | 0.408% |
| C=CCn1c(SCc2ccc(Cl)cc2)nc(=O)c(CC)c1O | -0.833% |
| Cc1ccc(S(=O)(=O)NC(=O)NCCc2ccc(S(N)(=O)=O)cc2)cc1 | -1.92% |
| O=C(c1ccccc1)c1ccc(N2C(=O)c3ccccc3C2=O)cc1 | -2.85% |
| COCCN1CC(C(=O)O)CC1=O (stereo not shown) | -0.186% |
| CCOc1cc(-c2c(C#N)c(N)nc3c2CCCC3)ccc1O | -0.171% |
| FC(F)(F)c1ccccc1CN1CCN(Cc2ccc3c(c2)OCO3)CC1 | -3.72% |
| COc1cccc(C(Nc2ccccn2)c2oc(CO)cc(=O)c2O)c1 (stereo not shown) | 0.0289% |
| N#CC1=C(N)Oc2[nH]nc(-c3ccccc3)c2C12C(=O)Nc1ccc(F)cc12 (stereo not shown) | -2.68% |
| CC1CCN(S(=O)(=O)c2ccc3c(ccn3CCC(=O)N3CCCCC3)c2)CC1 | 1.24% |
